No constants are given. Whether binding was seen depends on the method and setting. In cells and extracts the contact can be indirect. Some results given as binding are weak or reduced against the parent protein; the word gives no strength. Values belong to the substance of their own block, whether it stands above or below them.
Key:
[1] = target: T1, endogenous XBP-1S (human (endogenous; cell line not named, all cell lines of the paper are human)) (UniProt P17861); assay: co-IP; endogenous proteins; nuclear extracts of cells treated with 0.1% DMSO (no UPR induction); IP with anti-XBP-1 antibody, Western blot
T1 sequence: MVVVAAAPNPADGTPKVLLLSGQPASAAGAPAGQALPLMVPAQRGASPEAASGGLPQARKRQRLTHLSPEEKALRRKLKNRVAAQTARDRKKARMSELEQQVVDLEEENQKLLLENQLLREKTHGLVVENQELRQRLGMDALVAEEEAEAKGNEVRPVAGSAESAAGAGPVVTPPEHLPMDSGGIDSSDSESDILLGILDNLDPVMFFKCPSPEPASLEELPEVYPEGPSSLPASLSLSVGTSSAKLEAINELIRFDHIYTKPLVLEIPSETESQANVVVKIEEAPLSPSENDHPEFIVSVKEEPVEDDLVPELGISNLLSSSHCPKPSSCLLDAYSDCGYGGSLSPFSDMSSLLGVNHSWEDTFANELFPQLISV

Sequences of proteins named here, by UniProt entry; tags and fusion partners are left off.
UniProt Q92830: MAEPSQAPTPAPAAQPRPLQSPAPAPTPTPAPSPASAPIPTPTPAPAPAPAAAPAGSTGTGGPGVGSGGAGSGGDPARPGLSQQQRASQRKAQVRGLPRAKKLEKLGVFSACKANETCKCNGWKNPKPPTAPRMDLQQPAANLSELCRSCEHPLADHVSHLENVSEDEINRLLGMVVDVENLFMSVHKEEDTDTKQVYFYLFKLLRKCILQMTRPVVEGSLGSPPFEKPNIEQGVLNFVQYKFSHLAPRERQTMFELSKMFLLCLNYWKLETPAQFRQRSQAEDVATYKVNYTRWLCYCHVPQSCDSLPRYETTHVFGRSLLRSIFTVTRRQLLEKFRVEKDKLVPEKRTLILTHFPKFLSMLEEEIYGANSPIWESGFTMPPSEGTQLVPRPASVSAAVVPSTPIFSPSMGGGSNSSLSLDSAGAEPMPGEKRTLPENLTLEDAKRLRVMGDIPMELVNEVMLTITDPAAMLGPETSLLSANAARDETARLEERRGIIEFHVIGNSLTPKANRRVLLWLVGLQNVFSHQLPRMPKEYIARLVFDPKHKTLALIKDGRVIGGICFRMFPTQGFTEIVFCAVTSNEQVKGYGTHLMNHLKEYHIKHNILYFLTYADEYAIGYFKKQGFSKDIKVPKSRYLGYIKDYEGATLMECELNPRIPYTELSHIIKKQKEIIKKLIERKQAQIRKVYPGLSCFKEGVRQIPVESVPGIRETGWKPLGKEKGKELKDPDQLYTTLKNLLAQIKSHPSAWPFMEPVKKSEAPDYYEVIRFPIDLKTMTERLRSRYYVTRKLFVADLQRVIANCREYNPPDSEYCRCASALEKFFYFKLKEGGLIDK
UniProt Q92831: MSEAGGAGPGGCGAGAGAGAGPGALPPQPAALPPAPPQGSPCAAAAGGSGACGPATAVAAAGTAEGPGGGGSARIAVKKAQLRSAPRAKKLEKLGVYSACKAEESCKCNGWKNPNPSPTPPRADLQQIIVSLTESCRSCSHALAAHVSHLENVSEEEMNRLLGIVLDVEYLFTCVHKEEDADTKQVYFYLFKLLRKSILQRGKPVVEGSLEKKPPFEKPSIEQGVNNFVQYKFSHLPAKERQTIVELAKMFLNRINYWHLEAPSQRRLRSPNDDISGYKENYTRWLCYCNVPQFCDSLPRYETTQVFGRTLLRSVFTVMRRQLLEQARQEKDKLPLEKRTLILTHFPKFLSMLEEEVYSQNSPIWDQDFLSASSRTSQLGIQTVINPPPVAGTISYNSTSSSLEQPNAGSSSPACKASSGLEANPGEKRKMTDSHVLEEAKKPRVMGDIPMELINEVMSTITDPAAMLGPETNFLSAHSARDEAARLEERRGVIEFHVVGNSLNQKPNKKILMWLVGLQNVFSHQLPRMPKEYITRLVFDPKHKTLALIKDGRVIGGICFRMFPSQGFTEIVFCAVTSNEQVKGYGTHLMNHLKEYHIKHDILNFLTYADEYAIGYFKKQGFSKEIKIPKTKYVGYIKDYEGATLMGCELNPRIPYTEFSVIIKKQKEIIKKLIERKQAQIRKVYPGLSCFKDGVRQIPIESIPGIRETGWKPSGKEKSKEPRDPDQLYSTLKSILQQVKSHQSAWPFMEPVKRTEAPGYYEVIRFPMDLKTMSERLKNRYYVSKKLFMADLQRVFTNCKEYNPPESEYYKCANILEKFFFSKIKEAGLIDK

[2] = target: T2, XBP-1U (unspliced isoform of X-box binding protein 1) (human) (UniProt P17861); assay: co-IP; 293T cells co-transfected with expression plasmids; lysates two days after transfection; IP with anti-XBP-1 antibody (Roche IP kit), Western blot (anti-GCN5 or anti-GFP); normal IgG as control
T2 sequence: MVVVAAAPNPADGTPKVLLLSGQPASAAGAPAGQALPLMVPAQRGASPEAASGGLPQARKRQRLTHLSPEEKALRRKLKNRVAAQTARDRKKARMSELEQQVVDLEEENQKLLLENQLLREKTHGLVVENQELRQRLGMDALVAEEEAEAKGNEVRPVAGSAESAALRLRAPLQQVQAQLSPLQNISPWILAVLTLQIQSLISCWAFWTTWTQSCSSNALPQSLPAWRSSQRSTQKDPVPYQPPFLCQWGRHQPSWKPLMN

[3] = target: T3, XBP-1S, the active isoform of X-box binding protein 1 (human) (UniProt P17861); assay: as above
T3 sequence: T1 sequence

[4] = target: T3, XBP-1S, the active isoform of X-box binding protein 1 (human); assay: co-IP; 293T cells co-transfected with PCAF and XBP-1S vectors with or without a GCN5 plasmid; IP with anti-XBP-1 antibody, immunoblot with anti-PCAF or anti-XBP-1; bands quantified by densitometry, PCAF normalised to precipitated XBP-1S

- binding [1]: binds
Substance: endogenous GCN5 (from UniProt Q92830 1-837) (enzyme)

- binding [2]: no binding
- binding [3]: binds
Substance: general control nonderepressible 5 (GCN5) (from UniProt Q92830 1-837) (enzyme)

- binding [4]: binds
Substance: p300/CBP-associated factor (PCAF) (from UniProt Q92831 1-832) (enzyme)
